# Results published in the supplement of paper PMC10681739.
# The full ranking holds about 4,100 sequences; the median of “arbitrary fluorescence units” is about 780, and the highest 2% start at about 22,000. Some of the results follow.
# Molecular target: T1, ETS1 (UniProt P14921)
# T1 sequence: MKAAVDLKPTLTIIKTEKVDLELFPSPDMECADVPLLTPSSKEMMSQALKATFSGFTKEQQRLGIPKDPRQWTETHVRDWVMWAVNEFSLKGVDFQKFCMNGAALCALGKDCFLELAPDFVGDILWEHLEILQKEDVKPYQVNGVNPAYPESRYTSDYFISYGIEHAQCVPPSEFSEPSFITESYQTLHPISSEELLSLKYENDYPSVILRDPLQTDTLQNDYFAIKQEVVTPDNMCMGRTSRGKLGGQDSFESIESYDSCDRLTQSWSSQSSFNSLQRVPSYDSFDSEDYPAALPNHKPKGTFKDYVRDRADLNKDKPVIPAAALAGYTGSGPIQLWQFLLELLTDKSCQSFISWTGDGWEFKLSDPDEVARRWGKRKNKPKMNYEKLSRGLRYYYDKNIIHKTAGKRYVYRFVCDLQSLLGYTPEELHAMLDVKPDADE
# Assay: ETS1 binding intensity (PBM fluorescence), ETS1 alone (arbitrary fluorescence units); higher = stronger binding
# Details: ETS1 concentration 1 nM; RUNX1 concentration 0 nM
# Method in brief: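 Recombinant full-length human ETS1 was applied at 1 nM, without RUNX1, to double-stranded Agilent 4 × 180k arrays of 36-bp genomic probes carrying a mutated RUNX1 partner site, following standard PBM protocols. Detection used an anti-ETS1 antibody (Cell Signaling Technology 14069) and an Alexa488-conjugated secondary antibody, with scanning on a GenePix 4400A. Each sequence was printed as four replicate spots. Binding level is the spot fluorescence intensity, summarised across replicates and not normalised.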
row,Sequence,ETS1 binding intensity
1,ACCTTCCTGGCCCTGGGAGCTGGTTTAAGGTTGCAG,2790
2,AAAAGGCACCAGGAAATGACAGCACCGAAGCACGCC,1670
3,TTCAGGCGGCAAAGAACAGACCTGCAGGAGGAAATA,404
4,GTTTGGGGATTTCTGGTGTCAGGAAACACTTAAGAT,578
5,GCTAACGGAACCAGCACGCGGCCACCTCAGGAACCT,368
6,ACCTCTCTCACTTCCTACCAGAGAACCCCAGCCAAG,2790
7,CTGCAGCGGGGAGTTGCTAGTACAGGAAAAGAGGTC,451
8,CTCAGCGGAAGAGCGGGCCTCTGGGCCGAAGTGACC,1080
9,GGCGTGGCGGAAGGCGCGCTGGGGCGCTGCTTTCTC,494
10,GACCCAGATACGACACCTACCCTGCTTCCTTTTCTA,612
11,CGACGTCACTTCCGCTGGTTCAAGCACCGTGAGACT,21400
12,GGCTGCGCCGGCTGGGGTGTTCCTCCGACTTCCGGA,1590
13,AATAAACAGGAAGGTCTCTTGGAGCTGTGCTCTTGG,938
14,TCAGCCACTCGCGGAGGAGGAAGCGTTTTCGGCGCA,374
15,ATGTTAACATCCTGCCATGAAAATCGCAAGAAGGGC,10800
16,CCTCCCGACCGGAAGCCCCGCCAGAGAGCGGGTTGT,10300
17,GCATGGCAGTTCTTGGCGTGCGAACCCCTTCCGCCC,482
18,CGGACCCGCTGCGTTAACCCAGCCCCGGAAATAACG,693

row,Sequence,ETS1 binding intensity
1,CAAATCACATGCCCACCTGGGGGACAGGAAGAGGAC,475
2,GGGACAACCTCGGGCCTCGCTCCTCCCCGGACGGGG,344
3,GACGCTTCGGTAGCGCTGCTCCTTCCGCCTCCGGCT,649
4,AGCACTTCCGTTTGGGCAGGGCTGAGGGCCGGAGGG,16800
5,CGGCCCCCGGGGTTGTTAGCGCTTCCGGGGTCGAAG,3120
6,TTACGTTAAGGAGGAAACTCTGTGATTAAACTGTAG,437
7,ACAAAAAAATCACACACCCAACGGAAACCATAGAGA,669
8,TTTAAGGGCGGAAAGGCTTTAGCCGTAAAATGGCTT,366
9,AGACGGTTCCGGGGGACCGGCCGCGACTACGGCGGC,1460
10,GTGGGGCGGGCTTCCGGCGCTCCCACCGTGAGCCGA,8140
11,GGTGGACCTGTGATTTGCAACACAGGAAGAGACTAT,642
12,TGCCCTGACTTCCTGGTCCTGTTGTCAAGGATGGGG,6110
13,CCTTCTGGGAGCTGTAGTTCTGCAGGCGCGGAAGCC,311
14,CTTAAATGGGAAATGTAGGTGTCGTTAAGTCACAAA,414
15,GGATTTTGGGGTAGCGAACCCCGGGGCCGGAAGCAG,1080
16,TCTCCCTGCCCGCGAGTCAAAGCCACTTCCTTTTCC,917
17,CACCTGACTACAAGGCACACGAACATCCTTATCACA,655
